Out of some 410,000 compounds screened, about 1,200 (0.29%) were called active. Inconclusive results, whose numbers are uncertain, are shown with a selection of clear calls. Calls come from the whole dose curve; as a rule, active = well fitted activation curve with a large enough effect; inconclusive = small, poorly fitted or top-dose-only effect; inactive = flat fitted curve, though single readings scatter. Potencies beside an inconclusive call are fits to weak or partial responses and may not hold up.
Experiment: qHTS of Nrf2 Activators; note: nearly all actives have a fitted effect of over 65% in size
Settings: AREc32 ARE-luciferase reporter (MCF7-derived line), luminescence, 24 h; activation: at 46.1 µM (top of the series)
In short: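 Nrf2 activation is followed as ARE-luciferase induction in the AREc32 line after one day of compound treatment; luminescence is read with Steady-Glo.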
Potency is the fitted concentration of half-maximal effect; tags give direction and shape of the fitted curve.

SMILES	Potency
N#C/C(=C\c1c(Oc2ccc(Cl)cc2)nc2ccccn2c1=O)C(=O)NC1CCS(=O)(=O)C1 (configuration not stated)	inconclusive: 2.51 µM [activator, full curve, poor fit]
Cc1cccc(CC2S/C(=N/N=C/c3ccco3)NC2=O)c1 (configuration not stated)	inconclusive: 2 µM [activator, partial curve, poor fit]
CCCN(C(=O)CCl)C1=CCCCC1	inconclusive: 17.8 µM [activator, single point]
Cc1ccc(-n2nnnc2Sc2ccc(S(=O)(=O)NCCN(C)C)cc2[N+](=O)[O-])cc1	inconclusive: 3.55 µM [activator, partial curve, poor fit]
O=[N+]([O-])c1cccnc1Sc1n[nH]c(-c2ccc(Cl)cc2)n1	inconclusive: 14.1 µM [activator, single point]
O=C1OC(Nc2ccc3c(c2)OCO3)c2ccccc21 (configuration not stated)	active: 11.2 µM
CCn1ncc(Br)c1C(=O)Nc1cc([N+](=O)[O-])ccc1C	inconclusive: 5.01 µM [activator, full curve, poor fit]
O=C1/C(=C/Nc2cccc([N+](=O)[O-])c2)CCc2ccccc21	inconclusive: 3.16 µM [activator, full curve, poor fit]
O=C(Nc1nnc(-c2ccco2)s1)C1CC1	active: 11.2 µM
O=C1/C(=C/c2cccnc2)Sc2ccccc21	inconclusive: 20 µM [activator, single point]
FC(F)(F)c1ccccc1/C=N/Nc1ccccn1	inconclusive: 7.08 µM [activator, partial curve, poor fit]
CN1/C(=C\C=C2/C(=O)Oc3ccccc3C2=O)C(C)(C)c2ccccc21	inactive
O=C(Nc1cccc([N+](=O)[O-])c1)C12CC3CC(C1)CC(n1cnc([N+](=O)[O-])n1)(C3)C2	inconclusive: 35.5 µM [activator, single point]
COc1ccc([N+](=O)[O-])cc1NC(=O)CSCc1ccccc1	inconclusive: 15.8 µM [activator, partial curve, poor fit]
COC(=O)/C=C/C(=O)N1CCN(c2ccccc2C)CC1	inconclusive: 20 µM [activator, single point]
CCOC(=O)c1sc(NC(=O)CCN2CCN(CC)CC2)c(C(=O)OCC)c1C	inconclusive: 17.8 µM [activator, single point]
Clc1cccc(/C=N/Nc2nnc(Cl)c3ccccc23)c1	inconclusive: 1.58 µM [activator, partial curve, poor fit]
